# Assay results reported in PubChem BioAssay AID624417 (National Center for Advancing Translational Sciences (NCATS), 2012).
# About 6,400 (1.6%) of roughly 410,000 compounds were called active. This list was built around the results that the source calls inconclusive (neither active nor inactive); the mix of calls is not that of the screen. Calls come from the whole dose curve; as a rule, active = well fitted inhibition curve with a large enough effect; inconclusive = small, poorly fitted or top-dose-only effect; inactive = no such curve, though single readings can be large or run the other way. Potencies of inconclusive entries are left out as doubtful fits.
# Target: Glucagon-like peptide 1 receptor (Homo sapiens) (UniProt P43220)
# Assay: qHTS of GLP-1 Receptor Inverse Agonists (Inhibition Mode); note: nearly all actives have a fitted effect of over 55% in size
# Conditions: HEK293 GLP-1R CRE-luciferase, luminescence, 24 h, GLP-1R form is constitutively active; activity change, negative = inhibition: at 38.3 µM (top of the series) unless noted
# How it was run: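 GLP-1R inverse agonism mode: basal reporter luminescence in engineered HEK293 cells measured after one day of compound exposure at 37 deg C, with a 12 min room-temperature detection step.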
# % is set by controls: 0 for no effect and ±100 for the full control effect; potency is the fitted concentration of half-maximal effect; tags give direction and shape of the fitted curve.
# Sequence of UniProt P43220 (P43220 whole entry, looked up): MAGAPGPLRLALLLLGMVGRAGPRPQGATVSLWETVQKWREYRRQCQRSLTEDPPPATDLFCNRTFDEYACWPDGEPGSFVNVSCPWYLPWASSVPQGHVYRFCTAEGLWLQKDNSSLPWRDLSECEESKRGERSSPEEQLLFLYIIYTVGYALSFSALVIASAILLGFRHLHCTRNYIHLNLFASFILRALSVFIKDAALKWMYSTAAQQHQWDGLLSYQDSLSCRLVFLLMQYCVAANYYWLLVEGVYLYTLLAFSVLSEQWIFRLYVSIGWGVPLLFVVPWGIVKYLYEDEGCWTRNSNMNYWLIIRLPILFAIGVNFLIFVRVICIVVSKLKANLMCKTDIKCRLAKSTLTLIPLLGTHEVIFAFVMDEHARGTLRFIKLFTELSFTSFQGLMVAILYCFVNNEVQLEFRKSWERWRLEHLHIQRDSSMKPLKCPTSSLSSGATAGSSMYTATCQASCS
SMILES,Potency,"activity change, negative = inhibition"
Cc1ccc(-c2nc(CS(=O)(=O)CC(=O)NCc3ccccc3Cl)c(C)o2)cc1,"inconclusive [inhibitor, single point]",–
COc1ccc(OC)c(C2C3=C(N=c4s/c(=C\c5cccc(O)c5)c(=O)n42)c2ccccc2CC3)c1 (stereo not given),"inconclusive [inhibitor, full curve, poor fit]",–
Cc1cc2nc(-c3ccc(F)cc3)c(Cc3ccccc3)n2c(C)c1Br,"inconclusive [inhibitor, partial curve, poor fit]",–
O=C(NNC(=O)c1cc(-c2cccnc2)nc2ccccc12)Nc1ccc(Cl)cc1,–,inactive: 8.98% [at 0.307 µM]
CCn1c(SCC(=O)N2CCN(c3cccc(Cl)c3)CC2)nc2ccccc2c1=O,"inconclusive [inhibitor, single point]",–
COc1c(Br)cc([N+](=O)[O-])c(OC)c1C(=O)NC(=O)Nc1c(Cl)cccc1Cl,"inconclusive [inhibitor, single point]",–
Cc1cc(C)c2c(c1)OC(=O)CC2c1ccccc1C (stereo not given),"inconclusive [inhibitor, single point]",–
COc1ccc(N2CC(NC(=O)COc3ccc4ccccc4c3)CC2=O)cc1 (stereo not given),inactive,–
COC(=O)c1ccc2nc(-c3ccc4c(c3)OCO4)cn2c1,"inconclusive [inhibitor, full curve, poor fit]",–
O=C(Cn1c(-c2cccs2)cc2ccccc21)NCc1ccccc1Br,"inconclusive [inhibitor, partial curve, poor fit]",–
CSCCC(NC(=O)c1ccc(Cl)cc1Cl)C(=O)NCc1ccncc1 (stereo not given),inactive,–
COc1ccc(-n2c(CCc3ccccc3)nnc2SCC(=O)c2ccc(Cl)cc2)cc1,"inconclusive [inhibitor, single point]",–
Cc1ccc(NC(=S)N/N=C/c2ccc([N+](=O)[O-])s2)cc1,"inconclusive [inhibitor, single point]",–
Cn1c(C(=O)N2CCc3ccccc3C2)cc2oc3ccccc3c21,"inconclusive [inhibitor, single point]",–
O=C(Nc1ccnn1C1CCN(C(=O)c2ccc(C(F)(F)F)cc2)CC1)C1CC1,inactive,–
CC(C)=CCCC(C)CN1CCC(n2nccc2NC(=O)c2ccc3c(c2)OCO3)CC1 (stereo not given),"inconclusive [inhibitor, partial curve, poor fit]",–
Cc1ccc(OCC(=O)Nc2ccc(S(=O)(=O)N(C)C3CCN(C)CC3)cc2)c(C)c1,active: 2.24 µM,–
O=C(CN1C(=O)c2ccccc2S1(=O)=O)c1ccccc1F,"inconclusive [inhibitor, full curve]",–
CC(=O)OCn1ncc(N2CCOCC2)c(Br)c1=O,inactive,–
Oc1ccc(-c2c(C3=CCCCC3)sc3ccccc23)cc1,"inconclusive [inhibitor, single point]",–

SMILES,Potency,"activity change, negative = inhibition"
CN1OC[C@@H]2CN(Cc3ccc(Cl)cc3)[C@H](c3ccc(N4CCCCC4)cc3)C[C@@H]21,"inconclusive [inhibitor, partial curve, poor fit]",–
O=S(=O)(NCCc1ccccc1)c1ccccc1,"inconclusive [inhibitor, single point]",–
CCCN1CCC(N(C)CCc2ccc(OC)c(OC)c2)CC1,"inconclusive [inhibitor, partial curve, poor fit]",–
Cc1ccc(Nc2nc(Nc3ccc(C)c(C)c3)nc(N3CCOCC3)n2)cc1C,"inconclusive [inhibitor, full curve, poor fit]",–
COc1ccc(N2CCN(CCCNC(=O)c3cc(Nc4ccccc4OC)nc4ccccc34)CC2)cc1,"inconclusive [inhibitor, partial curve, poor fit]",–
CCN(Cc1nc2cc(Cl)ccc2c(=O)[nH]1)C(=O)c1cccc(NC(=O)c2cccs2)c1,"inconclusive [inhibitor, partial curve, poor fit]",–
CN(CC(=O)Nc1ccc(Cl)c(C(F)(F)F)c1)C(=O)c1ccc(OCC2CCCO2)cc1 (stereo not given),"inconclusive [inhibitor, partial curve, poor fit]",–
Cc1ccc(CNC(=O)C(N=C2NS(=O)(=O)c3ccccc32)C(C)C)cc1 (stereo not given),"inconclusive [inhibitor, partial curve, poor fit]",–
COc1ccc(S(=O)(=O)N2CCCCC2c2cc(C(=O)Nc3ccccc3Cl)no2)cc1 (stereo not given),"inconclusive [inhibitor, single point]",–
Oc1ccc(-c2cnc(-c3ccc(O)cc3)nc2)cc1,"inconclusive [inhibitor, full curve, poor fit]",–
COc1ccc2cc3c(N)nn(C(=O)c4ccc(Cl)c([N+](=O)[O-])c4)c3nc2c1,"inconclusive [inhibitor, full curve]",–
Cc1ccccc1CN1CCN(C(=O)c2cccc(F)c2)CC1,"inconclusive [inhibitor, partial curve, poor fit]",–
CCOc1ccc(N2C(=O)CC(SC(=NC)Nc3cccc(F)c3)C2=O)cc1 (stereo not given),"inconclusive [inhibitor, full curve, poor fit]",–
CSc1nc2nc3c(cc2c(=O)n1-c1ccc(C)cc1)COC(C)(C)C3,inactive,–
CN(CC1COc2ccccc2O1)C(=O)c1cc(COc2c(F)cccc2F)on1 (stereo not given),"inconclusive [inhibitor, partial curve, poor fit]",–
O=C(c1ccccc1Cl)N(Cc1ccc(Cl)c(Cl)c1)N1C(=O)CCCC1=O,"inconclusive [inhibitor, partial curve, poor fit]",–
O=C(Nc1ccc(OC(F)(F)F)cc1)c1ccc2nccnc2c1,"inconclusive [inhibitor, single point]",–
O=C(Nc1cccc(-c2cn3cccnc3n2)c1)Nc1ccccc1F,"inconclusive [inhibitor, partial curve, poor fit]",–
CCOc1ccc(S(=O)(=O)N2CCC(C(=O)OCc3cccc(OC)c3OC)CC2)cc1,"inconclusive [inhibitor, single point]",–
COC(=O)C1=C(CCc2ccccc2)NC(=O)NC1c1ccc(Cl)cc1 (stereo not given),"inconclusive [inhibitor, single point]",–

SMILES,Potency,"activity change, negative = inhibition"
CCc1ccc(CN2CCC(n3nccc3NC(=O)c3ccccc3Cl)CC2)cc1,"inconclusive [inhibitor, single point]",–
Nc1cc(Cl)ccc1Nc1ccncc1,"inconclusive [inhibitor, single point]",–
Cc1cc(C)cc(OCC(=O)N(Cc2ccc(Cl)cc2)CC2CCCO2)c1 (stereo not given),"inconclusive [inhibitor, single point]",–
CC(C)(C)C1CCC(OC(=O)CCC(=O)Nc2ccccc2)CC1 (stereo not given),"inconclusive [inhibitor, single point]",–
CCN(c1ccccc1)S(=O)(=O)c1ccc(F)c(C(=O)Nc2ccc(C)cc2)c1,"inconclusive [inhibitor, full curve, poor fit]",–
COC(=O)c1ccc(-n2c(C)ccc2-c2ccccc2)cc1,"inconclusive [inhibitor, partial curve]",–
COC(=O)C1C(=O)c2c([nH]c(C(=O)OC3CCCCC3)c2C)CC1C (stereo not given),"inconclusive [inhibitor, full curve, poor fit]",–
COc1cc(NC(=O)Cc2ccc(Cl)cc2)ccc1NC(=O)c1ccco1,"inconclusive [inhibitor, partial curve, poor fit]",–
CCCNC(=O)OCC12CC3CC(CC(C3)C1)C2,"inconclusive [inhibitor, single point]",–
O=C(Nc1ccc([N+](=O)[O-])cc1)C1C(c2ccccc2)=C1c1ccccc1,"inconclusive [inhibitor, full curve, poor fit]",–
CCCCCCCCCCCCCCCC(O)C[N+](C)(C)CCO (stereo not given),"inconclusive [inhibitor, full curve, poor fit]",–
Cc1nc(-c2cccc(F)c2)sc1CCNC(=O)c1ccc(F)c(F)c1,"inconclusive [inhibitor, single point]",–
CCN1C(c2ccc(F)cc2)=CS/C1=C(\C#N)c1nnc2n1-c1ccccc1SC2,"inconclusive [inhibitor, single point]",–
Cc1c(C)n(CC(O)CSc2ccccc2)c2ccccc12 (stereo not given),"inconclusive [inhibitor, single point]",–
CCOc1ccc(NS(=O)(=O)c2cc(NC(=O)CCC(=O)c3cccs3)ccc2Cl)cc1,active: 10 µM,–
CCN(CCCn1c(=S)[nH]c2ccc(N3CCOCC3)cc2c1=O)c1ccccc1,"inconclusive [inhibitor, single point]",–
Cc1ccc(CNC(=O)CN2C(=O)C3(SCC(=O)N3c3cc(C)cc(C)c3)c3ccccc32)cc1 (stereo not given),"inconclusive [inhibitor, single point]",–
COc1cc(-c2nc(C(=O)NC3CCN(Cc4ccccc4)CC3)cc3c2[nH]c2ccccc23)cc(OC)c1OC,"inconclusive [inhibitor, full curve, poor fit]",–
Cc1ccc2[nH]c(=O)c(CN(CCc3ccccc3)C(=O)N3CCOCC3)cc2c1,inactive,–
COc1ccc(CNCCSc2nnnn2-c2ccccc2)c(OC)c1,"inconclusive [inhibitor, partial curve]",–
